Test results published in the antibiotic and cytotoxicity screens of Wong et al. (2023).
Some of the results follow.

Columns and labels:
HSkMC = human skeletal muscle cells; test: cytotoxicity call (relative viability < 0.9); details: 10 µM
S. aureus RN4220 = test: growth inhibition call (relative growth <= 0.2); details: 50 µM

| SMILES | cytotoxicity call (HSkMC) | growth inhibition call (S. aureus RN4220) |
| --- | --- | --- |
| COc1ccc(S(=O)(=O)N(C)C[C@H]2Oc3ccc(NC(=O)Cn4cnnn4)cc3C(=O)N([C@@H](C)CO)C[C@H]2C)cc1 | inactive | inactive |
| C[C@H]1CN([C@@H](C)CO)C(=O)c2cccc(NC(=O)C3CC3)c2O[C@H]1CN(C)S(=O)(=O)c1ccc(F)cc1 | inactive | inactive |
| C[C@H](CO)N1C[C@H](C)[C@H](CN(C)Cc2ccc(Cl)c(Cl)c2)Oc2ccc(NS(=O)(=O)c3ccccc3)cc2CC1=O | inactive | inactive |
| COc1ccc(NC(=O)N(C)C[C@@H]2OCCCC[C@@H](C)Oc3ccc(NC(=O)c4ccccc4)cc3C(=O)N([C@@H](C)CO)C[C@@H]2C)cc1 | inactive | inactive |
| O=C(C[C@H]1C=C[C@H](NC(=O)c2ccc3c(c2)OCO3)[C@H](CO)O1)NCc1ccc(Oc2ccccc2)cc1 | inactive | inactive |
| Cc1ccc(S(=O)(=O)Nc2ccc3c(c2)C(=O)N([C@H](C)CO)C[C@H](C)[C@@H](CN(C)Cc2ccc(C(F)(F)F)cc2)OCCCC[C@@H](C)O3)cc1 | inactive | inactive |
| O=C(C1=C[C@H](c2ccc(Br)cc2)C[C@H](OCc2ccc(CO)cc2)O1)N1CCN(Cc2ccccc2)CC1 | inactive | inactive |
| C[C@@H]1CN([C@H](C)CO)C(=O)c2cccc(NC(=O)C3CCCCC3)c2O[C@@H]1CN(C)Cc1ccc(Oc2ccccc2)cc1 | inactive | inactive |
| C/C=C/c1ccc2c(c1)O[C@H](CN(C)S(=O)(=O)c1ccccc1OC)[C@@H](C)CN([C@H](C)CO)S2(=O)=O | inactive | inactive |
| Cc1ccc(S(=O)(=O)N(C)C[C@@H]2Oc3cc(C#Cc4ccccc4)ccc3S(=O)(=O)N([C@@H](C)CO)C[C@@H]2C)cc1 | inactive | inactive |
| COc1ccccc1C(=O)Nc1ccc2c(c1)C(=O)N(C)[C@@H]1CC[C@H](CC(=O)NCc3ccc(Cl)c(Cl)c3)O[C@H]1CO2 | inactive | inactive |
| C[C@@H]1CN([C@@H](C)CO)C(=O)c2cc(C#Cc3ccccc3F)cnc2O[C@H]1CN(C)C(=O)Cc1ccncc1 | inactive | inactive |
| O=C(C[C@@H]1C[C@H]2c3cc(NC(=O)Nc4ccccc4F)ccc3O[C@H]2[C@H](CO)O1)NCc1ccc(Oc2ccccc2)cc1 | inactive | inactive |
| OC[C@@H](O)CN1CCN(c2ccccc2)CC1 | inactive | inactive |
| C=CCC[C@@H](Cc1ccc(F)cc1)C(=O)OC[C@@H](Cc1c[nH]c2ccccc12)NC(=O)[C@H](CC=C)CC(=O)N[C@@H](CO)Cc1ccccc1 | inactive | inactive |
| CC(C)CC#Cc1ccc2c(c1)O[C@H](CN(C)C(=O)c1ccncc1)[C@H](C)CN([C@H](C)CO)S2(=O)=O | inactive | inactive |
| Clc1ccc2nncn2n1 | inactive | inactive |
| COCC(=O)N1CC(=O)N2[C@H](C1)[C@@H](c1ccc(C#Cc3cccnc3)cc1)[C@@H]2CO | inactive | inactive |
| C=CCOC(=O)[C@@H]1[C@H]2C(=O)O[C@H](c3ccccc3)[C@H](c3ccccc3)N2[C@H](c2ccc(OCCOC(=O)[C@H]3C[C@H]4C(=O)N[C@@H](CC(C)C)C(=O)N4[C@H]3c3cccc(OCCO)c3)cc2)[C@@]12C(=O)Nc1ccccc12 | inactive | inactive |
| C[C@H](O)C#Cc1ccc2c(c1)O[C@@H](CN(C)C(=O)C1CCCCC1)[C@@H](C)CN([C@H](C)CO)S2(=O)=O | inactive | inactive |
| C[C@H]1CN([C@@H](C)CO)C(=O)c2cccc(NC(=O)Nc3ccc4c(c3)OCO4)c2O[C@H]1CN(C)Cc1ccc(C(F)(F)F)cc1 | inactive | inactive |
| O=c1[nH][n+](-c2ccccc2)no1 | inactive | inactive |
| CN(C)C(=O)Cn1c(=O)oc2ccccc21 | inactive | inactive |
| CO[C@H](CN(C)S(=O)(=O)c1cn(C)cn1)[C@@H](C)CN(C(=O)Nc1ccc(C(F)(F)F)cc1)[C@H](C)CO | inactive | active |
| C[C@@H]1CCCCO[C@@H](CN(C)S(=O)(=O)c2ccccc2)[C@H](C)CN([C@@H](C)CO)C(=O)c2cc(NS(=O)(=O)c3ccc(Cl)cc3)ccc2O1 | inactive | inactive |
| Cc1noc(C)c1NC(=O)N(C)C[C@H]1Oc2ccc(NS(C)(=O)=O)cc2C(=O)N([C@H](C)CO)C[C@H]1C | inactive | inactive |
| C[C@@H]1CN([C@@H](C)CO)C(=O)Cc2cc(NS(=O)(=O)c3ccc(F)cc3)ccc2O[C@@H]1CN(C)Cc1ccncc1 | inactive | inactive |
